# Measured values taken from PubChem BioAssay AID1460 (National Center for Advancing Translational Sciences (NCATS), 2008).
# Several values for one entry are separate records, joined by “and”; a condition that tells them apart may be missing. Equal entries are not always repeated. The whole screen tested about 270,000 compounds, of which about 5,800 (2.1%) were called active. Inconclusive results, whose numbers are uncertain, are shown with a selection of clear calls. Calls come from the whole dose curve; as a rule, active = well fitted inhibition curve with a large enough effect; inconclusive = small, poorly fitted or top-dose-only effect; inactive = flat fitted curve, though single readings scatter. Where the call is inconclusive, the potency comes from a doubtful curve fit.
# Molecular target: Microtubule-associated protein tau (Homo sapiens) (UniProt P10636)
# Chain of UniProt P10636 (P10636 whole entry, looked up): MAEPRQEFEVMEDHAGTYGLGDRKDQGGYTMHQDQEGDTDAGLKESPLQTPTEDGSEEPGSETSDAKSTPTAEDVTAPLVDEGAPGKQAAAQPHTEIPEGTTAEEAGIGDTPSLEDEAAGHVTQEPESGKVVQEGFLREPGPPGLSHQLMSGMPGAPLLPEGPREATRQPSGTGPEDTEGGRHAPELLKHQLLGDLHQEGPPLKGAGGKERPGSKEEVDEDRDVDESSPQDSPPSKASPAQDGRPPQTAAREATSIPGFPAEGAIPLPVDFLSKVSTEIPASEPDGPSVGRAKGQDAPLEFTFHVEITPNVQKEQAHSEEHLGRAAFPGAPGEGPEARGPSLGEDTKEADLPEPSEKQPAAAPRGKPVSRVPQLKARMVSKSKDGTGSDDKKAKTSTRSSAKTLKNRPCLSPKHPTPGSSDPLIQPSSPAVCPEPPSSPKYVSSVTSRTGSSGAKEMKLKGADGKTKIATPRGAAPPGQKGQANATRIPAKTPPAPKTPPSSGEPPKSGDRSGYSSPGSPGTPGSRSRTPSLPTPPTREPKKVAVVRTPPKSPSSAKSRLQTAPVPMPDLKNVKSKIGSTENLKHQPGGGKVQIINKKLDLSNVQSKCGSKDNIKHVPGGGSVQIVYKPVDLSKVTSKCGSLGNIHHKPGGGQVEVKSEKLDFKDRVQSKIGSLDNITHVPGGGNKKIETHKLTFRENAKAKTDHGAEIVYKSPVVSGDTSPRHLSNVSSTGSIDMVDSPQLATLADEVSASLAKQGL
# Assay: qHTS for Inhibitors of Tau Fibril Formation, Thioflavin T Binding; note: nearly all actives have a fitted effect of over 55% in size
# Conditions: recombinant tau K18 P301L (four-repeat tau fragment), heparin-induced fibrillization, ThT fluorescence; series mostly up to 57.4 µM; activity, negative = inhibition: at the top concentration
# Outline: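 Tau K18 P301L fragment (15 uM unlabeled plus 0.24 uM Alexa 594-labeled) in 100 mM sodium acetate pH 7 with compound, fibrillization induced by 20 uM heparin for 6 hr at 37 C. Thioflavin T (30 uM) added, fluorescence read after 1 hr (ex 450, em 510 nm).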
# % is set by controls: 0 for no effect and ±100 for the full control effect; potency is the fitted concentration of half-maximal effect; tags give direction and shape of the fitted curve.
Structure (SMILES),Potency,"activity, negative = inhibition"
O=C(C#Cc1ccccc1)c1cccc([N+](=O)[O-])c1,"inconclusive: 6.31 µM [inhibitor, partial curve]",
COc1cccc(NC(=S)/C(=C(\[O-])c2ccc(OC(F)F)cc2)[n+]2ccccc2)c1,"inconclusive: 44.7 µM [inhibitor, single point]",
COc1ccc(Cl)cc1-n1cc(-c2ccccc2)nc1SCC(=O)Nc1ccc(C)cc1,,inactive: 4.54%
Cc1sc2nc(CSc3nnc(Cc4cccs4)n3C3CCCCC3)[nH]c(=O)c2c1C,"inconclusive: 15.8 µM [inhibitor, partial curve, poor fit]",
Cc1ccc(C(C)C)c(OCc2ccc(C(=O)N/N=C/c3cccc(O)c3O)cc2)c1,"inconclusive: 2.82 µM [inhibitor, full curve]",
Oc1cccc(NC(=S)Nc2cccnc2)c1,"inconclusive: 25.1 µM [inhibitor, single point]",
CCC(Sc1nc2c(sc3ccccc32)c(=O)n1CCc1ccc(OC)c(OC)c1)C(=O)N(CC)CC (stereo not drawn),"inconclusive: 1.41 µM [inhibitor, partial curve]",
COc1ccc(-c2ccc3c(n2)CCCN3C[C@H](O)CN2CCCc3nc(C)c(C)cc32)cc1,"inconclusive: 2.51 µM [inhibitor, partial curve]",
CCC(CC)C(=O)Nc1nnc(S(=O)(=O)N2CCCCCC2)s1,"inconclusive: 3.55 µM [inhibitor, full curve]",
COC(=O)c1ccccc1NC(=O)c1noc2c1CCC2,"inconclusive: 22.4 µM [inhibitor, partial curve]",
Cc1cccc(-c2cc(C(=O)Nc3sc(C)c(C)c3C(N)=O)c3ccccc3n2)c1,"inconclusive: 8.91 µM [inhibitor, partial curve]",
CCS(=O)(=O)c1ncc(Cl)c(C(=O)N2CCN(c3ccc(OC)cc3)CC2)n1,"inconclusive: 3.98 µM [inhibitor, full curve]",
CC1CC(C)CN(CCCOc2ccccc2[N+](=O)[O-])C1 (stereo not drawn),,inactive: 9.94%
Cc1ccc2cc(/C=N/NC(=O)c3ccccc3[N+](=O)[O-])c(Cl)nc2c1,"inconclusive: 39.8 µM [inhibitor, partial curve]",
CC(C)CC(=O)n1sc(NC(=O)c2ccccc2)nc1=O,active: 22.4 µM,
O=C(N/N=C/c1coc2ccccc2c1=O)c1cc2ccccc2o1,"inconclusive: 17.8 µM [inhibitor, single point]",
COc1ccc(-c2ccc(NCCC3=CCCCC3)nn2)cc1OC,"inconclusive: 2.82 µM [inhibitor, full curve]",
CCn1c(NC(=O)c2cccs2)nc2ccccc21,"inconclusive: 22.4 µM [inhibitor, partial curve, poor fit]",
CCN(CC)c1ccc2cc(S(=O)(=O)c3ccc(Cl)cc3)c(=O)oc2c1,"inconclusive: 25.1 µM [activator, partial curve]",
COC(=O)C1C(=O)C2=C(CC1C)NC(C)=C(C(=O)OCCOc1ccccc1)C2c1ccc(C)o1 (stereo not drawn),"inconclusive: 17.8 µM [inhibitor, single point]",
CCOc1ccc(C2c3c(oc4ccccc4c3=O)C(=O)N2CCCN2CCOCC2)cc1 (stereo not drawn),"inconclusive: 28.2 µM [inhibitor, partial curve]",

Structure (SMILES),Potency,"activity, negative = inhibition"
CC(=O)c1cccc(NC(=O)Nc2sc3nc4n(c(=O)c3c2C)CCC(C)CC4)c1 (stereo not drawn),"inconclusive: 14.1 µM [inhibitor, partial curve, poor fit]",
COc1ccccc1N/N=C/c1ccc2c(c1)OCO2,"inconclusive: 15.8 µM [inhibitor, partial curve]",
O=C(Nc1cc(C(F)(F)F)ccc1Cl)C(Sc1cccc[n+]1[O-])c1ccccc1 (stereo not drawn),,inactive: -4.11%
O=C(CNC(=O)c1ccccc1)OCc1cc(=O)n2nc(C3CCCCC3)sc2n1,"inconclusive: 10 µM [inhibitor, partial curve]",
COc1ccc(N2CCN(C(=O)CSc3nc(-c4ccc(C(C)C)cc4)no3)CC2)cc1,"inconclusive: 17.8 µM [inhibitor, partial curve, poor fit]",
O=C(CO/N=C/c1ccccc1OC(F)F)NCc1ccco1,,inactive: -1.56%
Cc1ccsc1CCN1C(=O)N(c2ccccc2)C(=O)C1CC(=O)Nc1ccc(Cl)cc1 (stereo not drawn),,inactive: 7.33%
Cc1cccc(OCC(=O)Nc2ccc(N3CCN(C(=O)c4ccco4)CC3)cc2)c1,"inconclusive: 0.316 µM [inhibitor, full curve]",
CCN(CC)c1ccc(NC(=O)c2cc(C)nc3c2c(C)nn3-c2ccc(C)cc2)c(C)c1,"inconclusive: 1.26 µM [inhibitor, full curve]",
O=C(CCCCCNC(=S)Nc1ccccc1)C[N+](=O)[O-],"inconclusive: 12.6 µM [inhibitor, single point]",
O=C(Cn1c2[n+](c3ccc(C(F)(F)F)cc31)CCCCC2)Nc1ccc(Br)cc1,,inactive: -2.61%
CCc1cc2ccc(OC)cc2nc1SCC(=O)N1CCN(C(=O)c2ccco2)CC1,"inconclusive: 35.5 µM [inhibitor, single point]",
Cc1ccc(C)c(NC(=S)/C(=C(\[O-])c2ccc(OC(F)F)cc2)[n+]2ccccc2)c1,"inconclusive: 28.2 µM [inhibitor, single point]",
CC1CCN(S(=O)(=O)N2CCC(C(=O)NCc3ccccc3Cl)CC2)CC1,,inactive: 6.89%
CC1=C(/C=C/C(C)=C/C=C/C(C)=C/CO)C(C)(C)CCC1,"inconclusive: 25.1 µM [inhibitor, partial curve] and inconclusive: 22.4 µM [inhibitor, single point]",
Oc1ccc(N=C/C=C/c2ccc(Br)cc2)cc1-c1nc2ccccc2s1,active: 11.2 µM,
COc1ccc(OC)c(-c2csc(NC(=O)C3=NNC(=O)CC3)n2)c1,"inconclusive: 17.8 µM [inhibitor, partial curve]",
COc1cc(/C=N/NC(=O)c2cc(-c3ccco3)nc3ccccc23)cc(OC)c1O,"inconclusive: 14.1 µM [inhibitor, partial curve]",
Cn1/c(=N/N=C/c2ccc([N+](=O)[O-])cc2)sc2ccccc21,"inconclusive: 3.16 µM [inhibitor, full curve]",
CN(C)/C=C/C(=O)c1cc(N2CCOCC2)ccc1[N+](=O)[O-],"inconclusive: 39.8 µM [inhibitor, single point]",
Nn1c(SCC(=O)NC2CCCCC2)nnc1-c1ccccc1,,inactive: -5.71%

Structure (SMILES),Potency,"activity, negative = inhibition"
C/C=C(/C(=C/C)c1ccc(O)cc1)c1ccc(O)cc1,"inconclusive: 31.6 µM [inhibitor, single point] and inconclusive: 20 µM [inhibitor, partial curve]",
[O-]/C(=C(\C(=S)Nc1cccc2ccccc12)[n+]1ccccc1)c1ccc(OC(F)F)cc1,"inconclusive: 28.2 µM [inhibitor, single point]",
COC(=O)CSc1[nH]c2ccc(Br)cc2c1[N+](=O)[O-],"inconclusive: 2.51 µM [inhibitor, full curve]",
CCNc1ccc(S(=O)(=O)N(C)C)cc1NCC(=O)Nc1ccc(Br)cc1F,"inconclusive: 25.1 µM [activator, single point]",
C=CCn1c(C(CCCC)CC(C)O)n[nH]c1=S (stereo not drawn),,inactive: -0.424%
Cc1cccc(-c2cc3c(N=O)c4ccccc4c-3n[nH]2)c1,"inconclusive: 5.62 µM [inhibitor, partial curve]",
Nc1nc2[nH]c(=O)[nH]c2c(=O)[nH]1,,inactive: 3.47%
Cc1cccc(/C=C/c2nc3ccccc3c(=O)[nH]2)c1,"inconclusive: 17.8 µM [inhibitor, partial curve]",
O=[N+]([O-])c1ccc([N+](=O)[O-])c(Nc2ccc(N3CCOCC3)cc2)c1,"inconclusive: 2.82 µM [inhibitor, full curve, poor fit]",
Cc1ccc(C)c(N2CCN(c3ccc(N4C(=O)COCC4=O)cc3[N+](=O)[O-])CC2)c1,"inconclusive: 12.6 µM [inhibitor, partial curve]",
COc1ccc(NC(=O)CCC2CCCCC2)cc1S(=O)(=O)N1CCCCC1,,inactive: 8.38%
Cc1c(C(=O)N2CCC(C)CC2)sc2ncnc(N(C)c3ccccc3)c12,"inconclusive: 28.2 µM [inhibitor, single point]",
COC(=O)c1ccc(NN=Nc2ccc(C)cc2)cc1,"inconclusive: 15.8 µM [inhibitor, partial curve]",
CSc1ccccc1N=Cc1nc(-c2ccccc2)oc1O,active: 20 µM,
CCn1c(CN2CCN(c3ccc(Cl)cc3)CC2)nc2ccccc21,"inconclusive: 15.8 µM [inhibitor, partial curve]",
Cc1noc(C)c1COc1ccc(C(=O)OCC(=O)c2ccc3c(c2)OCCO3)cc1,"inconclusive: 0.0501 µM [inhibitor, full curve, poor fit]",
O=C(CN1C(=O)CS/C1=C\c1nc(-c2ccc(Cl)cc2)cs1)Nc1cccnc1Cl,"inconclusive: 14.1 µM [inhibitor, single point]",
COc1ccc(C(=O)N/N=C(\C)Cn2cnc([N+](=O)[O-])n2)cc1,"inconclusive: 31.6 µM [inhibitor, single point]",
COc1cc(-c2nnc(Sc3ccc(C(F)(F)F)cc3[N+](=O)[O-])o2)cc(OC)c1OC,"inconclusive: 3.55 µM [inhibitor, partial curve]",
NS(=O)(=O)c1ccc(Nc2nc(-c3ccc(F)cc3)cs2)cc1,"inconclusive: 15.8 µM [inhibitor, partial curve]",
O=C(O)c1nn(CCSc2ccccc2F)c(=O)c2ccccc12,,inactive: -9.58%
